Experimental data published in patent US20140099634A1, “USE OF PRE-MRNA SPLICING IN PLATELET CELLS FOR THE DIAGNOSIS OF DISEASE” (priority 2007, published 2014).

Test system: platelets
Assay: Plasma clot formation by activated platelets or their membranes
Format: cell-based, human

CCN1/C(=C/C(C)=O)Sc2ccc(OC)cc21 [Tg003, (Z)-1-(3-Ethyl-5-methoxy-2,3-dihydrobenzothiazol-2-ylidene)propan-2-one]
accelerated clotting of human plasma by membranes of stimulated platelets: blocked
